Laboratory results reported in article PMC10905564.
No constants are given. Whether binding was seen depends on the method and setting. Some entries that bind do so weakly or less than the wild type.

T1: LATE FLOWERING (LATE), full-length (Arabidopsis thaliana) (UniProt Q9FKA9)
T1 sequence: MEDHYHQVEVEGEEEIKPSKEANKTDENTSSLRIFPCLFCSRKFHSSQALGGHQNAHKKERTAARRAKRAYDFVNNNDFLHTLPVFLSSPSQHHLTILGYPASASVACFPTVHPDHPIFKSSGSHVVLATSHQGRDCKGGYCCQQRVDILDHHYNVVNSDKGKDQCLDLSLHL


These binders were tested against T1, LATE FLOWERING (LATE), full-length (Arabidopsis thaliana) (assay: two-hybrid; bait fused to Gal4 DNA-BD (pDEST_GBKT7), prey fused to Gal4 AD (pDEST_GADT7), yeast strain Y2H gold; spotted onto SD -W/-L or SD -W/-L/-H with 0, 0.05 or 0.1 mM 3-AT; 30°C in the dark, 7-10 days).

| Binder | binding |
| --- | --- |
| CRABS CLAW (CRC) (protein, UniProt Q8L925 1-181) MNLEEKPTMTASRASPQAEHLYYVRCSICNTILAVGIPLKRMLDTVTVKCGHCGNLSFLTTTPPLQGHVSLTLQMQSFGGSDYKKGSSSSSSSSTSSDQPPSPSPPFVVKPPEKKQRLPSAYNRFMRDEIQRIKSANPEIPHREAFSAAAKNWAKYIPNSPTSITSGGHNMIHGLGFGEKK | binds |
| HDA19 (protein, UniProt O22446 1-501) MDTGGNSLASGPDGVKRKVCYFYDPEVGNYYYGQGHPMKPHRIRMTHALLAHYGLLQHMQVLKPFPARDRDLCRFHADDYVSFLRSITPETQQDQIRQLKRFNVGEDCPVFDGLYSFCQTYAGGSVGGSVKLNHGLCDIAINWAGGLHHAKKCEASGFCYVNDIVLAILELLKQHERVLYVDIDIHHGDGVEEAFYATDRVMTVSFHKFGDYFPGTGHIQDIGYGSGKYYSLNVPLDDGIDDESYHLLFKPIMGKVMEIFRPGAVVLQCGADSLSGDRLGCFNLSIKGHAECVKFMRSFNVPLLLLGGGGYTIRNVARCWCYETGVALGVEVEDKMPEHEYYEYFGPDYTLHVAPSNMENKNSRQMLEEIRNDLLHNLSKLQHAPSVPFQERPPDTETPEVDEDQEDGDKRWDPDSDMDVDDDRKPIPSRVKREAVEPDTKDKDGLKGIMERGKGCEVEVDESGSTKVTGVNPVGVEEASVKMEEEGTNKGGAEQAFPPKT | no binding |
| LATE FLOWERING (LATE), full-length (protein, UniProt Q9FKA9 1-173) MEDHYHQVEVEGEEEIKPSKEANKTDENTSSLRIFPCLFCSRKFHSSQALGGHQNAHKKERTAARRAKRAYDFVNNNDFLHTLPVFLSSPSQHHLTILGYPASASVACFPTVHPDHPIFKSSGSHVVLATSHQGRDCKGGYCCQQRVDILDHHYNVVNSDKGKDQCLDLSLHL | binds |

Results, then the binder that gave them:

| binding | Binder |
| --- | --- |
| no binding | KNUCKLES (KNU) (protein, UniProt Q9FFX4 1-161) MAEPPPSYLHFVGPAKTRSSSKRHSFSSSAHPASHRLFPCQYCPRKFYTSQALGGHQNAHKRERAAARRNLGVLANSPPILDDNNTFLRPYPCFYQNPFQGSTSGNEPLQEQPTMMTMDGYDPFHPYPYVYPFALSGNNNDGGNGVMEEDEPLDLDLSLRL |
| binds | TOPLESS (TPL) (protein, UniProt Q94AI7 1-1131) MSSLSRELVFLILQFLDEEKFKETVHKLEQESGFFFNMKYFEDEVHNGNWDEVEKYLSGFTKVDDNRYSMKIFFEIRKQKYLEALDKHDRPKAVDILVKDLKVFSTFNEELFKEITQLLTLENFRENEQLSKYGDTKSARAIMLVELKKLIEANPLFRDKLQFPTLRNSRLRTLINQSLNWQHQLCKNPRPNPDIKTLFVDHSCGPPNGARAPSPVNNPLLGGIPKAGGFPPLGAHGPFQPTASPVPTPLAGWMSSPSSVPHPAVSAGAIALGGPSIPAALKHPRTPPTNASLDYPSADSEHVSKRTRPMGISDEVNLGVNMLPMSFSGQAHGHSPAFKAPDDLPKTVARTLSQGSSPMSMDFHPIKQTLLLVGTNVGDIGLWEVGSRERLVQKTFKVWDLSKCSMPLQAALVKEPVVSVNRVIWSPDGSLFGVAYSRHIVQLYSYHGGEDMRQHLEIDAHVGGVNDISFSTPNKQLCVITCGDDKTIKVWDAATGVKRHTFEGHEAPVYSVCPHYKENIQFIFSTALDGKIKAWLYDNMGSRVDYDAPGRWCTTMAYSADGTRLFSCGTSKDGESFIVEWNESEGAVKRTYQGFHKRSLGVVQFDTTKNRYLAAGDDFSIKFWDMDAVQLLTAIDGDGGLQASPRIRFNKEGSLLAVSGNENVIKIMANSDGLRLLHTFENISSESSKPAINSIAAAAAAAATSAGHADRSANVVSIQGMNGDSRNMVDVKPVITEESNDKSKIWKLTEVSEPSQCRSLRLPENLRVAKISRLIFTNSGNAILALASNAIHLLWKWQRNERNATGKATASLPPQQWQPASGILMTNDVAETNPEEAVPCFALSKNDSYVMSASGGKISLFNMMTFKTMATFMPPPPAATFLAFHPQDNNIIAIGMDDSTIQIYNVRVDEVKSKLKGHSKRITGLAFSNVLNVLVSSGADAQLCVWNTDGWEKQRSKVLPLPQGRPNSAPSDTRVQFHQDQAHFLVVHETQLAIYETTKLECMKQWAVRESLAPITHATFSCDSQLVYASFMDATVCVFSSANLRLRCRVNPSAYLPASLSNSNVHPLVIAAHPQEPNMFAVGLSDGGVHIFEPLESEGKWGVAPPAENGSASGAPTAPSVGASASDQPQR |
